Source: patent US5639887A, “MDR reversal agents” (priority 1995, dated 1997)
“And” between values parts separate entries of the source, which are not always exact repeats. Identical values can stand only once. At least one read-out could not be matched to a standard name with certainty.

Experiments:
[1] = system: human epidermoid carcinoma KB/8.5; assay: In vivo evaluation of MDR-1 reversal agents against human epidermoid carcinoma KB/8.5 implanted SC in athymic nude mice; set-up: species or system human (tumor in athymic nude mice)
Experimental: The multiple drug resistant human epidermoid carcinoma KB/8.5 is propagated in medium containing colchicine (10 nanograms/ml) to maintain drug resistance. Colchicine is removed from the medium, for two cell passages, prior to subcutaneous (SC) implant of 8×10^6 KB/8.5 tumor cells into athymic "nude" mice (Harlan Sprague Dawley). […] Individual mouse tumor mass and mean tumor mass for each treatment group is determined on Day +14 and Day +21 of the test period. For each treatment group, the Relative Tumor Growth, RTG, is calculated as follows: [formula]
Statistical analysis of Log Relative Tumor Growth is carried out using the Student t-test. Transformation of the data from absolute mean tumor mass (mgs tumor mass) to Log Relative Tumor Growth prior to statistical analysis has two beneficial effects:
1) it corrects the data for differences in mean tumor mass of the different treatment groups at the start of the test period (Day 0); and
2) the Log transformation of the data more adequately reflects the exponential growth pattern of the SC tumors and makes the use of the Student t-test more appropriate.

[2] = system: bisantrene-resistant human ovarian carcinoma cells S1-B1-20 (OVCAR-3 subclone); assay: Screening assay for reversal agents: Difference Score with/without 20 μM bisantrene; assay type: cell-based; conditions: alone vs with 20 μM bisantrene, 3 days, difference in % cell survival; for Difference Score at 1 microM: test agent 1 microM; for Difference Score at 10 microM: test agent 10 microM; for Difference Score at 20 microM: test agent 20 microM
Experimental: Such cells are sorted by a fluorescent activated cell sorter (FACS; Becton Dickinson Model 440).
Cells, prepared by trypsinization, are plated at 20,000 cells/well in media with and without bisantrene. Then, test agents at varying concentrations are added to the cells. […] Completed plates are incubated for 3 days at 37° C. in a moisturized 7% CO2 atmosphere. […] Dye content/well is read at 540 nm in a microtiter reader. Values are electronically processed, % cell survival compared to untreated cells is computed, and the results are expressed as the difference between these values. Experiments are run in the presence of the test agent alone and the test agent in combination with 20 μM bisantrene. The Difference Score between those two experiments is reported below for 3 different concentrations of test agent.

Row | Structure (SMILES) | Difference Score at 1 microM [2] | Difference Score at 10 microM [2] | Difference Score at 20 microM [2] | also measured
1 | COc1ccc(C(CCCCCCN2CCc3cc(OC)c(OC)c(OC)c3C2)Sc2ccc(C)cc2)cc1OC (centres unmarked) [Example 67, 2-[7-(3,4-Dimethoxyphenyl)-7-[(4-methylphenyl)thio]-heptyl]-1,2,3,4-tetrahydro-6,7,8-trimethoxyisoquinoline] | 63 | 67 | 18 | Relative Tumor Growth Day 21 ([1]; doxorubicin 8 mg/kg IV + compound 25 mg/kg/dose SC at -2 h and +2 h, listed as Ex-67): 11.73 and 12.54
2 | COc1ccc(C(CCCCCCN2CCc3cc(OC)c(OC)cc3C2)Sc2ccc(C)cc2)cc1O (centres unmarked) [Example 72, 5-[7-(3,4-Dihydro-6,7-dimethoxy-2(1H)-isoquinolinyl)-1[(4-methylphenyl)thio]heptyl]-2-methoxyphenol] | 54 | 76 | 4 | Relative Tumor Growth Day 21 ([1]; doxorubicin 8 mg/kg IV + compound 25 mg/kg/dose SC at -2 h and +2 h, listed as Ex-72): 7.65 and 11.57; Relative Tumor Growth Day 21 ([1]; doxorubicin 8 mg/kg IV + compound 50 mg/kg/dose SC at -2 h and +2 h, listed as Ex-72): 12.45 and 10.01 and 9.82; Relative Tumor Growth Day 21 ([1]; doxorubicin 8 mg/kg IV + compound 200 mg/kg/dose SC at -2 h and +2 h, listed as Ex-72): 5.70 and 8.13 and 7.48
3 | COc1cc2c(cc1OC)CN(CCCCCCC(Sc1ccc(C)cc1)c1ccc(OC)c(OCCn3ccnc3)c1)CC2 (centres unmarked) [Example 74] | 76 | 25 | 0 | Relative Tumor Growth Day 21 ([1]; doxorubicin 8 mg/kg IV + compound 100 mg/kg/dose SC at -2 h and +2 h, listed as Ex-74): 6.25 and 11.43; Relative Tumor Growth Day 21 ([1]; doxorubicin 8 mg/kg IV + compound 200 mg/kg/dose SC at -2 h and +2 h, listed as Ex-74): 8.92 and 8.35
4 | CCC(CCCCCN1CCc2cc(OC)c(OC)cc2C1)(Sc1ccc(C)cc1)c1ccc(OC)c(OC)c1 (centres unmarked) [Example 78, 2-[6-(3,4-Dimethoxyphenyl)-6-[(4-methylphenyl)thio]-octyl]-1,2,3,4-tetrahydro-6,7-dimethoxyisoquinoline] | 44 | 49 | 20 | Relative Tumor Growth Day 21 ([1]; doxorubicin 8 mg/kg IV + compound 50 mg/kg/dose SC at -2 h and +2 h, listed as Ex-78): 7.09 and 10.89; Relative Tumor Growth Day 21 ([1]; doxorubicin 8 mg/kg IV + compound 100 mg/kg/dose SC at -2 h and +2 h, listed as Ex-78): 11.07 and 10.72; Relative Tumor Growth Day 21 ([1]; doxorubicin 8 mg/kg IV + compound 200 mg/kg/dose SC at -2 h and +2 h, listed as Ex-78): 14.91 and 8.60
5 | COc1ccc(C(C#N)(CCCCCN2Cc3cc(Cl)c(Cl)cc3C2)Sc2ccc(C)cc2)cc1OC (centres unmarked) [Example 81] | 2 | 62 | 78 | Relative Tumor Growth Day 21 ([1]; doxorubicin 8 mg/kg IV + compound 25 mg/kg/dose SC at -2 h and +2 h, listed as Ex-81): 10.51 and 20.00; Relative Tumor Growth Day 21 ([1]; doxorubicin 8 mg/kg IV + compound 50 mg/kg/dose SC at -2 h and +2 h, listed as Ex-81): 10.88 and 12.11; Relative Tumor Growth Day 21 ([1]; doxorubicin 8 mg/kg IV + compound 100 mg/kg/dose SC at -2 h and +2 h, listed as Ex-81): 11.57 and 14.37; Relative Tumor Growth Day 21 ([1]; doxorubicin 8 mg/kg IV + compound 200 mg/kg/dose SC at -2 h and +2 h, listed as Ex-81): 8.71 and 12.03
6 | COc1ccc(C(C#N)(CCCCCN2CCc3cc(OC)c(OCc4ccccc4)cc3C2)Sc2ccc(C)cc2)cc1OC (stereo not drawn) [Example 97, α-(3.4-Dimethoxyphenyl)-3,4-dihydro-6-methoxy-α-[(4-methylphenyl)thio]-7-(phenylmethoxy)-2(1H)-isoquinoline] | 66 | 58 | 48 | Relative Tumor Growth Day 21 ([1]; doxorubicin 8 mg/kg IV + compound 25 mg/kg/dose SC at -2 h and +2 h, listed as Ex-97): 9.12 and 11.60; Relative Tumor Growth Day 21 ([1]; doxorubicin 8 mg/kg IV + compound 50 mg/kg/dose SC at -2 h and +2 h, listed as Ex-97): 8.66 and 12.91; Relative Tumor Growth Day 21 ([1]; doxorubicin 8 mg/kg IV + compound 100 mg/kg/dose SC at -2 h and +2 h, listed as Ex-97): 11.68 and 13.13; Relative Tumor Growth Day 21 ([1]; doxorubicin 8 mg/kg IV + compound 200 mg/kg/dose SC at -2 h and +2 h, listed as Ex-97): 8.27 and 12.62
